# Measurements taken from the supplement of paper PMC8728848.
# The other results are listed elsewhere or left out.
# B1: Gal 8 (Homo sapiens) (protein)
# chain: MLSLNNLQNIIYNPVIPYVGTIPDQLDPGTLIVICGHVPSDADRFQVDLQNGSSVKPRADVAFHFNPRFKRAGCIVCNTLINEKWGREEITYDTPFKREKSFEIVIMVLKDKFQVAVNGKHTLLYGHRIGPEKIDTLGIYGKVNIHSIGFSFSSDLQSTQASSLELTEISRENVPKSGTPQLQTVSPSWDLQGHGSETFCSVLWTRVFLEIAFCRPIGLTVASFQSLPFAARLNTPMGPGRTVVVKGEVNANAKSFNVDLLAGKSKDIALHLNPRLNIKAFVRNSFLQESWGEEERNITSFPFSPGMYFEMIIYCDVREFKVAVNGVHSLEYKHRFKELSSIDTLEINGDIHLLEVRSW
# Experiments:
# Assay in all cases: glycan array binding signal (z-score within array); higher = stronger binding
# Details in all cases: glycan notation: IUPAC condensed, linker removed
# [1] = molecular target: GlcNAc(a1-3)Gal(b1-4)GlcNAc
# How it was run: (§1)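 The Consortium for Functional Glycomics database supplied 3228 glycan arrays, of which those lacking an available protein sequence were dropped. The binding signal, a within-array Z-score, was averaged across arrays of the same protein sequence and across linkers. Negative scores can be read as non-binding.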
# [2] = molecular target: GlcNAc(a1-4)Gal(b1-3)GlcNAc
# How it was run: as §1
# [3] = molecular target: GlcNAc(a1-4)Gal(b1-4)GalNAc
# How it was run: as §1
# [4] = molecular target: GlcNAc(a1-4)Gal(b1-4)GlcNAc
# How it was run: as §1
# [5] = molecular target: GlcNAc(a1-4)Gal(b1-4)GlcNAc(b1-3)Gal(b1-4)Glc
# How it was run: as §1
# [6] = molecular target: GlcNAc(a1-4)Gal(b1-4)GlcNAc(b1-3)Gal(b1-4)GlcNAc
# How it was run: as §1
# [7] = molecular target: GlcNAc(a1-4)Gal(b1-4)GlcNAc(b1-3)Gal(b1-4)GlcNAc(b1-3)Gal(b1-4)GlcNAc
# How it was run: as §1
# [8] = molecular target: GlcNAc(a1-4)Gal(b1-4)GlcNAc(b1-3)Gal(b1-4)[Fuc(a1-3)]GlcNAc(b1-3)Gal(b1-4)[Fuc(a1-3)]GlcNAc
# How it was run: as §1
# [9] = molecular target: GlcNAc(a1-6)Gal(b1-4)GlcNAc
# How it was run: as §1
# [10] = molecular target: GlcNAc(b1-2)Gal(b1-3)GalNAc
# How it was run: as §1
# [11] = molecular target: GlcNAc(b1-2)Man(a1-3)[GlcNAc(b1-2)Man(a1-6)]Man(b1-4)GlcNAc(b1-4)GlcNAc
# How it was run: as §1
# [12] = molecular target: GlcNAc(b1-2)Man(a1-3)[GlcNAc(b1-2)Man(a1-6)]Man(b1-4)GlcNAc(b1-4)[Fuc(a1-6)]GlcNAc
# How it was run: as §1
# [13] = molecular target: GlcNAc(b1-2)Man(a1-3)[GlcNAc(b1-4)][GlcNAc(b1-2)Man(a1-6)]Man(b1-4)GlcNAc(b1-4)GlcNAc
# How it was run: as §1
# [14] = molecular target: GlcNAc(b1-2)Man(a1-3)[GlcNAc(b1-4)][GlcNAc(b1-2)Man(a1-6)]Man(b1-4)GlcNAc(b1-4)[Fuc(a1-6)]GlcNAc
# How it was run: as §1
# [15] = molecular target: GlcNAc(b1-2)[GlcNAc(b1-4)]Man(a1-3)[GlcNAc(b1-2)Man(a1-6)]Man(b1-4)GlcNAc(b1-4)GlcNAc
# How it was run: as §1
# [16] = molecular target: GlcNAc(b1-2)[GlcNAc(b1-4)]Man(a1-3)[GlcNAc(b1-4)][GlcNAc(b1-2)Man(a1-6)]Man(b1-4)GlcNAc(b1-4)GlcNAc
# How it was run: as §1
# [17] = molecular target: GlcNAc(b1-2)[GlcNAc(b1-4)]Man(a1-3)[GlcNAc(b1-4)][GlcNAc(b1-2)[GlcNAc(b1-6)]Man(a1-6)]Man(b1-4)GlcNAc(b1-4)GlcNAc
# How it was run: as §1
# [18] = molecular target: GlcNAc(b1-2)[GlcNAc(b1-4)]Man(a1-3)[GlcNAc(b1-4)][GlcNAc(b1-2)[GlcNAc(b1-6)]Man(a1-6)]Man(b1-4)GlcNAc(b1-4)[Fuc(a1-6)]GlcNAc
# How it was run: as §1
# [19] = molecular target: GlcNAc(b1-2)[GlcNAc(b1-6)]Man(a1-6)[GlcNAc(b1-2)Man(a1-3)]Man(b1-4)GlcNAc(b1-4)GlcNAc
# How it was run: as §1
# [20] = molecular target: GlcNAc(b1-2)[GlcNAc(b1-6)]Man(a1-6)[GlcNAc(b1-2)Man(a1-3)]Man(b1-4)GlcNAc(b1-4)[Fuc(a1-6)]GlcNAc
# How it was run: as §1
# [21] = molecular target: GlcNAc(b1-2)[GlcNAc(b1-6)]Man(a1-6)[GlcNAc(b1-4)][GlcNAc(b1-2)Man(a1-3)]Man(b1-4)GlcNAc(b1-4)GlcNAc
# How it was run: as §1
# GlcNAc(b1-3)Fuc = molecular target: GlcNAc(b1-3)Fuc
# How it was run: as §1
# GlcNAc(b1-3)Gal = molecular target: GlcNAc(b1-3)Gal
# How it was run: as §1
# [22] = molecular target: GlcNAc(b1-3)Gal(b1-3)GalNAc
# How it was run: as §1
# GlcNAc(b1-3)Gal(b1-4)Glc = molecular target: GlcNAc(b1-3)Gal(b1-4)Glc
# How it was run: as §1
# [23] = molecular target: GlcNAc(b1-3)Gal(b1-4)GlcNAc
# How it was run: as §1
# [24] = molecular target: GlcNAc(b1-3)Gal(b1-4)GlcNAc(b1-2)Man(a1-3)[GlcNAc(b1-3)Gal(b1-4)GlcNAc(b1-2)Man(a1-6)]Man(b1-4)GlcNAc(b1-4)GlcNAc
# How it was run: as §1
# [25] = molecular target: GlcNAc(b1-3)Gal(b1-4)GlcNAc(b1-2)Man(a1-3)[GlcNAc(b1-3)Gal(b1-4)GlcNAc(b1-2)Man(a1-6)]Man(b1-4)GlcNAc(b1-4)[Fuc(a1-6)]GlcNAc
# How it was run: as §1
# [26] = molecular target: GlcNAc(b1-3)Gal(b1-4)GlcNAc(b1-2)[GlcNAc(b1-3)Gal(b1-4)GlcNAc(b1-6)]Man(a1-6)[GlcNAc(b1-3)Gal(b1-4)GlcNAc(b1-2)Man(a1-3)]Man(b1-4)GlcNAc(b1-4)GlcNAc
# How it was run: as §1
# [27] = molecular target: GlcNAc(b1-3)Gal(b1-4)GlcNAc(b1-3)Gal(b1-4)GlcNAc
# How it was run: as §1
# [28] = molecular target: GlcNAc(b1-3)Gal(b1-4)GlcNAc(b1-3)Gal(b1-4)GlcNAc(b1-2)Man(a1-3)[GlcNAc(b1-3)Gal(b1-4)GlcNAc(b1-3)Gal(b1-4)GlcNAc(b1-2)Man(a1-6)]Man(b1-4)GlcNAc(b1-4)GlcNAc
# How it was run: as §1
# [29] = molecular target: GlcNAc(b1-3)Gal(b1-4)GlcNAc(b1-3)Gal(b1-4)GlcNAc(b1-2)Man(a1-3)[GlcNAc(b1-3)Gal(b1-4)GlcNAc(b1-3)Gal(b1-4)GlcNAc(b1-2)Man(a1-6)]Man(b1-4)GlcNAc(b1-4)[Fuc(a1-6)]GlcNAc
# How it was run: as §1
# [30] = molecular target: GlcNAc(b1-3)Gal(b1-4)GlcNAc(b1-3)Gal(b1-4)GlcNAc(b1-2)[GlcNAc(b1-3)Gal(b1-4)GlcNAc(b1-3)Gal(b1-4)GlcNAc(b1-6)]Man(a1-6)[GlcNAc(b1-3)Gal(b1-4)GlcNAc(b1-3)Gal(b1-4)GlcNAc(b1-2)Man(a1-3)]Man(b1-4)GlcNAc(b1-4)[Fuc(a1-6)]GlcNAc
# How it was run: as §1
# [31] = molecular target: GlcNAc(b1-3)Gal(b1-4)GlcNAc(b1-3)Gal(b1-4)GlcNAc(b1-3)Gal(b1-4)GlcNAc(b1-2)Man(a1-3)[GlcNAc(b1-3)Gal(b1-4)GlcNAc(b1-3)Gal(b1-4)GlcNAc(b1-3)Gal(b1-4)GlcNAc(b1-2)Man(a1-6)]Man(b1-4)GlcNAc(b1-4)GlcNAc
# How it was run: as §1
# [32] = molecular target: GlcNAc(b1-3)Gal(b1-4)GlcNAc(b1-3)Gal(b1-4)GlcNAc(b1-3)Gal(b1-4)GlcNAc(b1-2)Man(a1-3)[GlcNAc(b1-3)Gal(b1-4)GlcNAc(b1-3)Gal(b1-4)GlcNAc(b1-3)Gal(b1-4)GlcNAc(b1-2)Man(a1-6)]Man(b1-4)GlcNAc(b1-4)[Fuc(a1-6)]GlcNAc
# How it was run: as §1
# [33] = molecular target: GlcNAc(b1-3)Gal(b1-4)GlcNAc(b1-3)Gal(b1-4)GlcNAc(b1-3)Gal(b1-4)GlcNAc(b1-2)[GlcNAc(b1-3)Gal(b1-4)GlcNAc(b1-3)Gal(b1-4)GlcNAc(b1-3)Gal(b1-4)GlcNAc(b1-6)]Man(a1-6)[GlcNAc(b1-3)Gal(b1-4)GlcNAc(b1-3)Gal(b1-4)GlcNAc(b1-3)Gal(b1-4)GlcNAc(b1-2)Man(a1-3)]Man(b1-4)GlcNAc(b1-4)[Fuc(a1-6)]GlcNAc
# How it was run: as §1
# [34] = molecular target: GlcNAc(b1-3)Gal(b1-4)GlcNAc(b1-3)Gal(b1-4)GlcNAc(b1-3)Gal(b1-4)GlcNAc(b1-3)Gal(b1-4)GlcNAc(b1-2)Man(a1-3)[GlcNAc(b1-3)Gal(b1-4)GlcNAc(b1-3)Gal(b1-4)GlcNAc(b1-3)Gal(b1-4)GlcNAc(b1-3)Gal(b1-4)GlcNAc(b1-2)Man(a1-6)]Man(b1-4)GlcNAc(b1-4)GlcNAc
# How it was run: as §1
binder,measurement,setting,value
B1,glycan array binding signal (z-score),[1],-0.345
same,glycan array binding signal (z-score),[2],-0.357
same,glycan array binding signal (z-score),[3],-0.357
same,glycan array binding signal (z-score),[4],-0.357
same,glycan array binding signal (z-score),[5],0.419
same,glycan array binding signal (z-score),[6],0.138
same,glycan array binding signal (z-score),[7],0.82
same,glycan array binding signal (z-score),[8],-0.35
same,glycan array binding signal (z-score),[9],-0.348
same,glycan array binding signal (z-score),[10],-0.236
same,glycan array binding signal (z-score),[11],-0.47
same,glycan array binding signal (z-score),[12],-0.356
same,glycan array binding signal (z-score),[13],-0.354
same,glycan array binding signal (z-score),[14],-0.355
same,glycan array binding signal (z-score),[15],-0.354
same,glycan array binding signal (z-score),[16],-0.357
same,glycan array binding signal (z-score),[17],-0.356
same,glycan array binding signal (z-score),[18],-0.356
same,glycan array binding signal (z-score),[19],-0.353
same,glycan array binding signal (z-score),[20],-0.356
same,glycan array binding signal (z-score),[21],-0.355
same,glycan array binding signal (z-score),GlcNAc(b1-3)Fuc,-0.356
same,glycan array binding signal (z-score),GlcNAc(b1-3)Gal,-0.396
same,glycan array binding signal (z-score),[22],-0.363
same,glycan array binding signal (z-score),GlcNAc(b1-3)Gal(b1-4)Glc,-0.338
same,glycan array binding signal (z-score),[23],-0.391
same,glycan array binding signal (z-score),[24],-0.235
same,glycan array binding signal (z-score),[25],-0.172
same,glycan array binding signal (z-score),[26],1.1
same,glycan array binding signal (z-score),[27],0.595
same,glycan array binding signal (z-score),[28],1.57
same,glycan array binding signal (z-score),[29],2.71
same,glycan array binding signal (z-score),[30],5.71
same,glycan array binding signal (z-score),[31],3.52
same,glycan array binding signal (z-score),[32],2.64
same,glycan array binding signal (z-score),[33],4.87
same,glycan array binding signal (z-score),[34],2.94
